Results reported in publication PMC4336329 (PLoS ONE, 2015).
The whole screen tested about 310,000 compounds, of which about 14,000 (4.5%) showed an effect of 50% or more. The effect is printed as a negative number. The list shows a part of the results.

What follows are compounds tested against human ether-à-go-go-related gene (hERG) potassium channel (human, UniProt Q12809) (assay: primary screen, population patch clamp on CHO cells stably expressing hERG).
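Also: peak tail current of the secondary pulse compared with the same well before compound.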

human ether-à-go-go-related gene (hERG) potassium channel, sequence (Q12809 whole entry, looked up): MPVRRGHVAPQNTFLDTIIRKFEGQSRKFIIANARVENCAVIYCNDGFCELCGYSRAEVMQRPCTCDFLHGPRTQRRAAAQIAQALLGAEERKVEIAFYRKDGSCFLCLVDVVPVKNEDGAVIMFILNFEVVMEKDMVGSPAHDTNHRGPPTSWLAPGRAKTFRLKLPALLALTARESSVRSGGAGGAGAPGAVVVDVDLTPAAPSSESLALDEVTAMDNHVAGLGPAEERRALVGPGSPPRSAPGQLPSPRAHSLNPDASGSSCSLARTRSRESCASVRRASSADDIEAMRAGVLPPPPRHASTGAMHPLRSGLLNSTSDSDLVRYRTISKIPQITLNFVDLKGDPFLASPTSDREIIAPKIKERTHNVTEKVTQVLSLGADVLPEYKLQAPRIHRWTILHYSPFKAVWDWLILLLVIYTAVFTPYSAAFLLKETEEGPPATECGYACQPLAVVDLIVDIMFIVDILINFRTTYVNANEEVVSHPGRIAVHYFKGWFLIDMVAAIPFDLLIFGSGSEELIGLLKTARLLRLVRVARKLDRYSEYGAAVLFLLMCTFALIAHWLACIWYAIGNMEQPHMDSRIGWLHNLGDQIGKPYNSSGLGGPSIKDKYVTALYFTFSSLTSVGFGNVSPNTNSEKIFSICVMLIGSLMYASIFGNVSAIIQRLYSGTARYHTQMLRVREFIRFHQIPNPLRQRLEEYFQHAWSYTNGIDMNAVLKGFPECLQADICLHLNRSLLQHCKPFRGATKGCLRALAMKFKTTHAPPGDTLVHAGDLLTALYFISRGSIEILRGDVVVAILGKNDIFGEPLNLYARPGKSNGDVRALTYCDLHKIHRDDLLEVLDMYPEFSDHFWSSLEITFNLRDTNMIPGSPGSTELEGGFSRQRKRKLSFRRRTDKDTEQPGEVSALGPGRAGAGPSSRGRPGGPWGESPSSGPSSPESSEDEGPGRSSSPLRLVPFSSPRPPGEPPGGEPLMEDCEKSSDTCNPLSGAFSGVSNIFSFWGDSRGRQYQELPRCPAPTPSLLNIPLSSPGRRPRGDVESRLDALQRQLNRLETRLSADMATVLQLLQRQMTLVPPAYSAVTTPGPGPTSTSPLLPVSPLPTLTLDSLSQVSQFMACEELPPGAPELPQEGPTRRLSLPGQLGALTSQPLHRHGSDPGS

Going from CC1CCN(CC(=O)Nc2ccc(Cl)cc2[N+](=O)[O-])CC1 to O=C(CSCc1ccc(Cl)cc1)Nc1cc([N+](=O)[O-])ccc1O, the “hERG current change (%, negative = inhibition) at 10uM” value rises from 7.18% to 16.9%.

Compared with CN(Cc1nc2ccc(F)cc2[nH]1)C(=O)C1CCC(=O)N(C2CC2)C1 (stereo not shown), CCOC(=O)C1(Cc2cccc(F)c2)CCN(C(=O)C2CCC2)CC1 is lower in “hERG current change (%, negative = inhibition) at 10uM” value: 2.02% for the first, -24% for the second.

First: Nc1ccc2c(c1)C/C(=C/c1ccco1)C2=O
Second: O=C(Nc1ccc2c(c1)Cc1ccccc1-2)c1ccccc1F
The “hERG current change (%, negative = inhibition) at 10uM” value of the first is lower: 6.77% for the first, 17.6% for the second.

Compared with COc1ccc(S(=O)(=O)NCc2cccnc2)cc1C(=O)Nc1ccccc1, CC(=O)Nc1ccc(S(=O)(=O)NCCc2ccccn2)cc1 is higher in “hERG current change (%, negative = inhibition) at 10uM” value: -47.9% for the first, 12.5% for the second.

First: COC(=O)c1ccc2nc(Nc3nc4c(F)cc(F)cc4s3)sc2c1
Second: COc1ccc(CCNC(=O)CSc2nc3[nH]ncc3c(=O)n2-c2cccc(C(F)(F)F)c2)cc1OC
The “hERG current change (%, negative = inhibition) at 10uM” value of the first is lower: 0.987% for the first, 44.3% for the second.

Compared with CC(OC(=O)CCCN=C1NS(=O)(=O)c2ccccc21)C(=O)Nc1ccc(F)cc1Cl (stereo not shown), CCCNC(=O)c1ccccc1NC(=O)CSCc1ccc(OC)cc1 is higher in “hERG current change (%, negative = inhibition) at 10uM” value: -15.3% for the first, 25.7% for the second.

Compared with CC1(OC(=O)c2ccco2)C(=O)C=C2C=C(c3ccc(C#N)cc3)OC=C2C1=O (stereo not shown), Nc1c(N(Cc2ccco2)C(=O)COc2ccccc2Cl)c(=O)[nH]c(=O)n1Cc1ccccc1 is higher in “hERG current change (%, negative = inhibition) at 10uM” value: -1.03% for the first, 2.98% for the second.

First: CCCC(c1nnnn1CCc1ccccc1)N1CCN(C(=O)c2ccco2)CC1 (stereo not shown)
Second: Cc1ccc(C(c2nnnn2CC2CCCO2)N2CCN(C(=O)c3ccco3)CC2)cc1 (stereo not shown)
The “hERG current change (%, negative = inhibition) at 10uM” value of the first is lower: -49.3% for the first, -4.13% for the second.

Compared with O=C(CSc1nnc(CSc2nc3ccccc3s2)o1)NC1CCCCC1, Cc1cc(NC(=O)CCC(=O)N(c2ccc(F)cc2)C2(C(=O)NC3CCCCC3)CCCC2)no1 is lower in “hERG current change (%, negative = inhibition) at 10uM” value: 6.46% for the first, 2.27% for the second.

Going from CCc1nonc1NC(=O)c1oc2ccccc2c1C to COc1ccc(OC)c(N=Cc2c(O)c3ccccc3oc2=O)c1, the “hERG current change (%, negative = inhibition) at 10uM” value falls from 14.3% to 12.9%.

Going from Cc1nnc(SCC(=O)Nc2nccs2)s1 to CCOc1ncccc1C(=O)Nc1ccc(-c2ccc3nnc(C)n3n2)cc1, the “hERG current change (%, negative = inhibition) at 10uM” value falls from 20.4% to 19.6%.

First: CC(C)CSc1ncnc2c1oc1nc3c(cc12)COC(C)(C)C3
Second: CC1(C)Oc2ccc3ccc(=O)oc3c2-c2cnoc21
The “hERG current change (%, negative = inhibition) at 10uM” value of the first is lower: 2.55% for the first, 14.1% for the second.

Compared with Cc1ccc(-c2noc(C3CCCN(C(=O)c4ccc(Cl)cc4)C3)n2)o1 (stereo not shown), Cc1ccc(C)n1-c1ccc(C(=O)N2CCOCC2)cc1 is higher in “hERG current change (%, negative = inhibition) at 10uM” value: -55.2% for the first, 19.5% for the second.

Going from Cc1ccc(NC(=O)CN2C(=O)NC(C)(CCc3ccccc3)C2=O)cc1 (stereo not shown) to CCOc1[nH]n(-c2ccccc2)c(=O)c1C=Nc1ccc(C)cc1, the “hERG current change (%, negative = inhibition) at 10uM” value falls from -15.6% to -18.1%.

First: COc1ccccc1N1CN(Cc2ccccc2)CNC1=S
Second: O=C(Nc1ccc2c(c1)OCCO2)N1CCN(Cc2ccccc2)CC1
The “hERG current change (%, negative = inhibition) at 10uM” value of the first is lower: -3.29% for the first, 5.57% for the second.

Going from O=S(=O)(c1ccc(Cl)cc1)N1c2ccccc2Oc2nc3ccccc3nc21 to O=S(=O)([N-]c1nc2ccccc2nc1-[n+]1ccc(-c2ccncc2)cc1)c1ccccc1, the “hERG current change (%, negative = inhibition) at 10uM” value falls from 15.9% to 5.07%.

Compared with CSc1cccc(NC(=O)CCCOc2ccccc2)c1, N/C(CC(=O)NCCOc1ccccc1)=N\O is lower in “hERG current change (%, negative = inhibition) at 10uM” value: 10.6% for the first, -10.9% for the second.

Going from O=C(/C=C/c1c(F)cccc1Cl)N1CCOCC1 to O=C(C(=O)N1CCN(c2ccccc2F)CC1)c1cn(CC(=O)N2CCOCC2)c2ccccc12, the “hERG current change (%, negative = inhibition) at 10uM” value falls from 15.6% to 2.51%.

First: CC(=O)Nc1ccc(CC(=O)NCCC(c2ccccc2)c2ccccc2)cc1
Second: CCOc1ccc(NC(=O)CCNC(=O)c2ccc(Br)cc2)cc1
The “hERG current change (%, negative = inhibition) at 10uM” value of the first is higher: 13.7% for the first, 7.86% for the second.

First: CC(NC(=O)Cn1cc(Br)c([N+](=O)[O-])n1)c1ccccc1 (stereo not shown)
Second: CCC(C(=O)N1CCc2cc(OC)c(OC)cc2C1)c1ccccc1 (stereo not shown)
The “hERG current change (%, negative = inhibition) at 10uM” value of the first is lower: 11.1% for the first, 12.6% for the second.

Compared with CC(=O)c1cccc(N(CC(=O)Nc2cc(C)cc(C)c2)S(C)(=O)=O)c1, O=C(CCS(=O)(=O)c1ccc(Br)cc1)Nc1ccc2c(c1)OCO2 is lower in “hERG current change (%, negative = inhibition) at 10uM” value: 13.3% for the first, 0.695% for the second.

First: O=C(C1CCN(S(=O)(=O)c2ccc(-n3cnnn3)cc2)CC1)N1CCN(c2ccccc2)CC1
Second: O=C(CCC1CCCN(C(=O)C2(c3ccccc3)CC2)C1)N1CCN(c2ccccn2)CC1 (stereo not shown)
The “hERG current change (%, negative = inhibition) at 10uM” value of the first is lower: -35.7% for the first, -20.6% for the second.

First: CC1(C)NC(=O)N(CCOCCOc2ccc3ccccc3c2Br)C1=O
Second: Cc1ccccc1OCCCn1c(=O)sc2ccccc21
The “hERG current change (%, negative = inhibition) at 10uM” value of the first is lower: -8.87% for the first, 21.4% for the second.

Going from O=[N+]([O-])c1ccc2oc(C(O)c3cccc(Cl)c3)cc2c1 (stereo not shown) to Cc1cc2ccccn2c1C(=O)Nc1cccc(Cl)c1, the “hERG current change (%, negative = inhibition) at 10uM” value rises from -21.4% to 41.1%.

Compared with CCc1ccc(-c2cn3c(n2)SCC3)cc1, CCOC(=O)CSc1nc(-c2ccncc2)ccc1C#N is lower in “hERG current change (%, negative = inhibition) at 10uM” value: 4.12% for the first, -61.6% for the second.

Going from COc1ccc(S(=O)(=O)Nc2cc(C(=O)NCCCN3CCOCC3)ccc2N2CCOCC2)cc1 to COc1ccc(C2=NN(C(=O)CN3CCOCC3)C(c3nc4ccccc4[nH]3)C2)cc1 (stereo not shown), the “hERG current change (%, negative = inhibition) at 10uM” value falls from 25% to -8.74%.

First: COc1nc(NS(=O)(=O)c2ccc(C)cc2)nc(C)c1Cl
Second: COc1ccc2c(c1)C(=O)N(c1ccc(C)cc1C)C(=O)C2(C)C
The “hERG current change (%, negative = inhibition) at 10uM” value of the first is higher: 4.82% for the first, 1.59% for the second.

First: Cc1sc2nc(CN3CCOCC3)nc(NCCc3ccccc3)c2c1C
Second: CC1CCN(C(c2ccc(N(C)C)cc2)c2nnnn2Cc2ccccc2)CC1 (stereo not shown)
The “hERG current change (%, negative = inhibition) at 10uM” value of the first is lower: -30% for the first, -2.22% for the second.

Going from O=C(Nc1ccccc1)N1CCN(c2ncccn2)CC1 to CN1CCN(C(=O)c2ccc3c(c2)NC(=O)/C(=C/c2ccccc2)S3)CC1, the “hERG current change (%, negative = inhibition) at 10uM” value falls from 8.36% to -16%.

Compared with COc1ccc(OC)c(-c2cc(C(=O)N/N=C/c3cc(OC)c(OC)cc3OC)c3ccccc3n2)c1, CC(C)(C)c1nnc(NC(=O)c2cc(-c3ccccc3)nc3ccccc23)s1 is higher in “hERG current change (%, negative = inhibition) at 10uM” value: 0.0881% for the first, 17.3% for the second.

Going from COc1cccc(C(=O)Nc2ccccc2C(=O)N2CCCC2)c1 to CCOc1ccccc1/C=C(/NC(=O)c1ccccc1)C(=O)N1CCCCC1, the “hERG current change (%, negative = inhibition) at 10uM” value falls from -2.5% to -12.2%.

Compared with N=c1c(-c2nc3ccccc3[nH]2)cc(C(=O)c2cccs2)nn1-c1ccccc1, O=C(/C(=C(\[O-])c1ccccc1)[n+]1ccc2ccccc2c1)c1ccc(Cl)cc1 is higher in “hERG current change (%, negative = inhibition) at 10uM” value: -50.2% for the first, 8.46% for the second.

First: O=C1ON=C(c2ccccc2[N+](=O)[O-])/C1=C/c1cccc([N+](=O)[O-])c1O
Second: COc1ccc2c(COC(=O)c3n[nH]c4ccccc34)cc(=O)oc2c1
The “hERG current change (%, negative = inhibition) at 10uM” value of the first is higher: 11.1% for the first, -1.8% for the second.

Compared with COc1ccc(-c2csc3ncnc(Oc4ccc5c(C)cc(=O)oc5c4)c23)cc1, CCOC(=O)c1ccc2c(c1)NC(=O)C(N1CCN(c3ccc(OC)cc3)CC1)S2 (stereo not shown) is lower in “hERG current change (%, negative = inhibition) at 10uM” value: 12.6% for the first, 7.24% for the second.

Going from FC(F)Sc1ccc(N=C2NN=C(c3ccc4c(c3)OCCO4)CS2)cc1 to C=CCn1c(SCC(=O)Nc2ccc(N3CCOCC3)cc2)nnc1-c1ccco1, the “hERG current change (%, negative = inhibition) at 10uM” value rises from -6.91% to 2.29%.

Compared with CCOc1ccccc1NC(=O)C(CC)Sc1nc2ccncc2[nH]1 (stereo not shown), O=C(O)CCC(=O)NNc1nc2ccccc2nc1-c1ccccc1 is higher in “hERG current change (%, negative = inhibition) at 10uM” value: 3.92% for the first, 9.41% for the second.

Going from CCOC(=O)N1CCN(C(=O)c2ccc3c(=O)n(-c4cc(OC)ccc4OC)c(=S)[nH]c3c2)CC1 to O=C(c1ccco1)N1CCN(Cc2cccc(F)c2)CC1, the “hERG current change (%, negative = inhibition) at 10uM” value falls from 31.8% to -0.928%.

Compared with Cc1cccc(NC(=O)c2cccc(N3C(=O)C4C5CCC(C5)C4C3=O)c2)c1C (stereo not shown), Cc1ccccc1-n1c(C)nnc1SCC(=O)N1CCc2ccccc2C1 is higher in “hERG current change (%, negative = inhibition) at 10uM” value: -7.75% for the first, -5.79% for the second.

First: Cc1nn(Cc2ccc(C(=O)N3N=C(C(F)F)CC3(O)C(F)F)o2)c(C)c1[N+](=O)[O-] (stereo not shown)
Second: COc1ccc(CNC(=O)C2CCN(c3nnc(N4CCCC4=O)s3)CC2)cc1
The “hERG current change (%, negative = inhibition) at 10uM” value of the first is lower: -37.3% for the first, -5.05% for the second.

First: CCCCn1c(N)c(N(CC(C)C)C(=O)CSc2ccccc2C)c(=O)[nH]c1=O
Second: CCC1CCCCN1C(=O)Cn1c(=O)n(CCC(=O)NCc2ccco2)c(=O)c2sccc21 (stereo not shown)
The “hERG current change (%, negative = inhibition) at 10uM” value of the first is higher: 1.8% for the first, -6.12% for the second.

Compared with CCCCN(CCCC)S(=O)(=O)c1ccc(NC(=O)c2ccc([N+](=O)[O-])cc2Cl)cc1, Cc1ccc(CSCCNC(=O)/C=C/c2ccc(Cl)cc2)cc1 is lower in “hERG current change (%, negative = inhibition) at 10uM” value: 20.7% for the first, -1.94% for the second.

Compared with COc1ccc(OCC(=O)NC2CC(C)(C)NC(C)(C)C2)cc1, Cc1ccc(NC(=O)[C@H](NC(=O)[C@@H]2Cc3ccccc3CN2)c2ccccc2)c(C)c1 is lower in “hERG current change (%, negative = inhibition) at 10uM” value: 12% for the first, -60.7% for the second.

For O=C(/C=C/c1ccccc1)NC(NC(=S)Nc1ccc(C(=O)O)cc1)C(Cl)(Cl)Cl (stereo not shown), the “hERG current change (%, negative = inhibition) at 10uM” value was 23.5%.
